Reference: US8715948

Biological target: fibrillin-1 (UniProt P35555)
Chain of UniProt P35555 (P35555 whole entry, looked up): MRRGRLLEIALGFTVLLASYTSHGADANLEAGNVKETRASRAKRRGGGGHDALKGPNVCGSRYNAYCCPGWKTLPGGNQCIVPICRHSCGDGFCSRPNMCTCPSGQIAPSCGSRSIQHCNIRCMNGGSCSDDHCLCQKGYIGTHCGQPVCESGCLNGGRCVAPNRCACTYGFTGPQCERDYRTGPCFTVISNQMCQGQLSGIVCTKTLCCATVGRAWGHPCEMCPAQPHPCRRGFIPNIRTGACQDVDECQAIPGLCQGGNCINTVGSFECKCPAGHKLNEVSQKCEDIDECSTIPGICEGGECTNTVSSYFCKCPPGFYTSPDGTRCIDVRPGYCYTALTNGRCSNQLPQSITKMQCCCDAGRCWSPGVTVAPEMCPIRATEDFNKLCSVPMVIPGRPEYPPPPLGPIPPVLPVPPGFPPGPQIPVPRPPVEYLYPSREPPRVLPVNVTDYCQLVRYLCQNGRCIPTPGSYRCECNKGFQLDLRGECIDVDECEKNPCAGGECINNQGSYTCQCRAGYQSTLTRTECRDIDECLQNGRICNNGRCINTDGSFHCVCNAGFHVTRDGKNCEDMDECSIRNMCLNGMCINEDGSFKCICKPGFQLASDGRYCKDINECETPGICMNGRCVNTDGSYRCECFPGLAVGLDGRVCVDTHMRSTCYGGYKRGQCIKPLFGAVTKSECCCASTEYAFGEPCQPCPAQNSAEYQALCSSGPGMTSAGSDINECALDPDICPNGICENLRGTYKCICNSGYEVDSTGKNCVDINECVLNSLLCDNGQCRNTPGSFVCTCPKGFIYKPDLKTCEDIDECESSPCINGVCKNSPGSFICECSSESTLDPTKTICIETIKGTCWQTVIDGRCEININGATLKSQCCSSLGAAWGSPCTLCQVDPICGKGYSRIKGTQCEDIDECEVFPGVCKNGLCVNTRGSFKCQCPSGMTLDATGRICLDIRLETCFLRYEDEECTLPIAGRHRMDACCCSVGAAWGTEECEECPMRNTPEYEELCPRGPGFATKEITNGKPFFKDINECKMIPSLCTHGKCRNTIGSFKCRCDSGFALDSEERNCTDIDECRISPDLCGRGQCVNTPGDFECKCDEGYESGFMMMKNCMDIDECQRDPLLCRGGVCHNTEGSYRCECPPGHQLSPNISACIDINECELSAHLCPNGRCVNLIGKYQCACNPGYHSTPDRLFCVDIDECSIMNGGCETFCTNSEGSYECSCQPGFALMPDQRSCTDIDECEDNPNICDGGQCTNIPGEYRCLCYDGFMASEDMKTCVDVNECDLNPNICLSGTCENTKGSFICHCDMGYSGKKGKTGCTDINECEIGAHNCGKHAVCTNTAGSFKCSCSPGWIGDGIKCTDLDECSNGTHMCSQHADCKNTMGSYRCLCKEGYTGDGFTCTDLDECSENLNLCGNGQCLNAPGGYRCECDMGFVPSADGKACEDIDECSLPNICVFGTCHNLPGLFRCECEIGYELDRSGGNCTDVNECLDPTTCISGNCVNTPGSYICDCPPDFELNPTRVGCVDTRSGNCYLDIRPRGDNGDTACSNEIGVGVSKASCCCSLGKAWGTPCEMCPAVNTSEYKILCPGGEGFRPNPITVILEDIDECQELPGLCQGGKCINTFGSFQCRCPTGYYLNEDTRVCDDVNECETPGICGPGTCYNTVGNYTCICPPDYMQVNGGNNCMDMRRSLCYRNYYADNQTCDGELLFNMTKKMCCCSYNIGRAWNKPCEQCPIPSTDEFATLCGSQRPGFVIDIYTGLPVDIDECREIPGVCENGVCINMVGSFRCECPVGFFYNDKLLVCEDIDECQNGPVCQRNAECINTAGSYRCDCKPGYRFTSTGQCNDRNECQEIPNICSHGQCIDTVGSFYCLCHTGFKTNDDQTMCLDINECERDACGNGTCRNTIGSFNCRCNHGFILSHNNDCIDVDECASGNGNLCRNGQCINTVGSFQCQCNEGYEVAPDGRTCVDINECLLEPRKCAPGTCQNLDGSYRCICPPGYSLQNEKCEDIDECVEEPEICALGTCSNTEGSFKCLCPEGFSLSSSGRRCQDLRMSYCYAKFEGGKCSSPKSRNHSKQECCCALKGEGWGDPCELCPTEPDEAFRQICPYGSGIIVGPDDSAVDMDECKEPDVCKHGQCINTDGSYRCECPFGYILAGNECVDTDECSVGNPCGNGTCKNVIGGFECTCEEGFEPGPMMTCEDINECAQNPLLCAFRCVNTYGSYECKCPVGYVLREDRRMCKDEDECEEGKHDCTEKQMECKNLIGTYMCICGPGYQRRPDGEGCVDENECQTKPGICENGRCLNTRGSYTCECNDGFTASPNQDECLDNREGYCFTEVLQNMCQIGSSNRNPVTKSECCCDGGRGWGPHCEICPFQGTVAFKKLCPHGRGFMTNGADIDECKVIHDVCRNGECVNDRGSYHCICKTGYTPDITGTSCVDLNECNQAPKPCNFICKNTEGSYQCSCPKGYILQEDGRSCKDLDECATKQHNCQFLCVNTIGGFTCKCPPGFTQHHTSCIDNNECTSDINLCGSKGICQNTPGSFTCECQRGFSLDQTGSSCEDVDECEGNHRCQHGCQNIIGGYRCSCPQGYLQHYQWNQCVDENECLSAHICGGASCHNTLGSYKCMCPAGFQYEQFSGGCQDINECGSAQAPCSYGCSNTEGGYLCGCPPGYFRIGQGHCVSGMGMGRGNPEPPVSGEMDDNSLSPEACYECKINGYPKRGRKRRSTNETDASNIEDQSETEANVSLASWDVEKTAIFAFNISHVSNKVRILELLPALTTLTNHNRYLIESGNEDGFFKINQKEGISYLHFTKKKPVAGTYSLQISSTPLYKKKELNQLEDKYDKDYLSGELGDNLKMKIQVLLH

Granzyme B (letters omitted) was tested. Which “cleavage fragments, fibrillin-1 Western blot of supernatant and ECM” value did it give?
Its value is “showed fibrillin-1 cleavage fragments in the GrB supernatant, GrB ECM”.
